From the supplement of paper PMC8728848
This is one part of the list.

Assays:
Assay in all cases: glycan array binding signal (z-score within array); higher = stronger binding
Settings in all cases: glycan notation: IUPAC condensed, linker removed
[1] = molecular target: GlcNAc(b1-4)GlcNAc(b1-4)GlcNAc(b1-4)GlcNAc(b1-4)GlcNAc
Procedure, shortened: (§1)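 Columns mapping to the same glycan were averaged after glycan names were converted to IUPAC-condensed notation. The data come from 3228 arrays in the Consortium for Functional Glycomics database, limited to those with an available protein sequence. Binding is reported as a within-array Z-score averaged across arrays of one protein sequence and across linkers.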

[2] = molecular target: GlcNAc(b1-4)GlcNAc(b1-4)GlcNAc(b1-4)GlcNAc(b1-4)GlcNAc(b1-4)GlcNAc
Procedure, shortened: as §1

[3] = molecular target: GlcNAc(b1-4)[GlcNAc(b1-6)]GalNAc
Procedure, shortened: as §1

[4] = molecular target: GlcNAc(b1-6)Gal(b1-4)GlcNAc
Procedure, shortened: as §1

GlcNAc(b1-6)GalNAc = molecular target: GlcNAc(b1-6)GalNAc
Procedure, shortened: as §1

[5] = molecular target: GlcNAc6S(b1-3)Gal(b1-4)GlcNAc
Procedure, shortened: as §1

Kdn(a2-3)Gal(b1-3)GalNAc = molecular target: Kdn(a2-3)Gal(b1-3)GalNAc
Procedure, shortened: as §1

Kdn(a2-3)Gal(b1-3)GlcNAc = molecular target: Kdn(a2-3)Gal(b1-3)GlcNAc
Procedure, shortened: as §1

Kdn(a2-3)Gal(b1-4)Glc = molecular target: Kdn(a2-3)Gal(b1-4)Glc
Procedure, shortened: as §1

Kdn(a2-3)Gal(b1-4)GlcNAc = molecular target: Kdn(a2-3)Gal(b1-4)GlcNAc
Procedure, shortened: as §1

[6] = molecular target: Kdn(a2-3)Gal(b1-4)[Fuc(a1-3)]GlcNAc
Procedure, shortened: as §1

Kdn(a2-6)Gal(b1-4)GlcNAc = molecular target: Kdn(a2-6)Gal(b1-4)GlcNAc
Procedure, shortened: as §1

[7] = molecular target: Man(a1-2)Man(a1-2)Man(a1-3)Man
Procedure, shortened: as §1

[8] = molecular target: Man(a1-2)Man(a1-2)Man(a1-6)[Man(a1-3)]Man
Procedure, shortened: as §1

Man(a1-2)Man(a1-3)Man = molecular target: Man(a1-2)Man(a1-3)Man
Procedure, shortened: as §1

[9] = molecular target: Man(a1-2)Man(a1-3)[Man(a1-2)Man(a1-6)]Man
Procedure, shortened: as §1

[10] = molecular target: Man(a1-2)Man(a1-3)[Man(a1-2)Man(a1-6)]Man(a1-6)[Man(a1-2)Man(a1-2)Man(a1-3)]Man
Procedure, shortened: as §1

[11] = molecular target: Man(a1-2)Man(a1-3)[Man(a1-2)Man(a1-6)]Man(a1-6)[Man(a1-2)Man(a1-2)Man(a1-3)]Man(b1-4)GlcNAc(b1-4)GlcNAc
Procedure, shortened: as §1

[12] = molecular target: Man(a1-2)Man(a1-3)[Man(a1-6)]Man(a1-6)[Man(a1-2)Man(a1-3)]Man(b1-4)GlcNAc(b1-4)GlcNAc
Procedure, shortened: as §1

[13] = molecular target: Man(a1-2)Man(a1-6)[Man(a1-3)]Man(a1-6)[Man(a1-2)Man(a1-2)Man(a1-3)]Man
Procedure, shortened: as §1

[14] = molecular target: Man(a1-2)Man(a1-6)[Man(a1-3)]Man(a1-6)[Man(a1-2)Man(a1-2)Man(a1-3)]Man(b1-4)GlcNAc(b1-4)GlcNAc
Procedure, shortened: as §1

Man(a1-3)[Man(a1-6)]Man = molecular target: Man(a1-3)[Man(a1-6)]Man
Procedure, shortened: as §1

[15] = molecular target: Man(a1-3)[Man(a1-6)]Man(a1-6)[Man(a1-2)Man(a1-3)]Man(b1-4)GlcNAc(b1-4)GlcNAc
Procedure, shortened: as §1

[16] = molecular target: Man(a1-3)[Man(a1-6)]Man(a1-6)[Man(a1-3)]Man
Procedure, shortened: as §1

[17] = molecular target: Man(a1-3)[Man(a1-6)]Man(a1-6)[Man(a1-3)]Man(b1-4)GlcNAc(b1-4)GlcNAc
Procedure, shortened: as §1

[18] = molecular target: Man(a1-3)[Man(a1-6)]Man(b1-4)GlcNAc(b1-4)GlcNAc
Procedure, shortened: as §1

[19] = molecular target: Man(a1-3)[Man(a1-6)]Man(b1-4)GlcNAc(b1-4)[Fuc(a1-6)]GlcNAc
Procedure, shortened: as §1

Man(a1-6)Man = molecular target: Man(a1-6)Man
Procedure, shortened: as §1

Man(b1-4)GlcNAc = molecular target: Man(b1-4)GlcNAc
Procedure, shortened: as §1

MurNAc(b1-4)GlcNAc = molecular target: MurNAc(b1-4)GlcNAc
Procedure, shortened: as §1

Neu5Ac(a2-3)Gal = molecular target: Neu5Ac(a2-3)Gal
Procedure, shortened: as §1

[20] = molecular target: Neu5Ac(a2-3)Gal(b1-3)GalNAc
Procedure, shortened: as §1

[21] = molecular target: Neu5Ac(a2-3)Gal(b1-3)GalNAc(b1-3)Gal(a1-4)Gal(b1-4)Glc
Procedure, shortened: as §1

[22] = molecular target: Neu5Ac(a2-3)Gal(b1-3)GalNAc(b1-4)Gal(b1-4)Glc
Procedure, shortened: as §1

[23] = molecular target: Neu5Ac(a2-3)Gal(b1-3)GalNAc(b1-4)[Neu5Ac(a2-3)]Gal(b1-4)Glc
Procedure, shortened: as §1

[24] = molecular target: Neu5Ac(a2-3)Gal(b1-3)GalNAc(b1-4)[Neu5Ac(a2-8)Neu5Ac(a2-3)]Gal(b1-4)Glc
Procedure, shortened: as §1

[25] = molecular target: Neu5Ac(a2-3)Gal(b1-3)GalNAc6S
Procedure, shortened: as §1

[26] = molecular target: Neu5Ac(a2-3)Gal(b1-3)GlcNAc
Procedure, shortened: as §1

[27] = molecular target: Neu5Ac(a2-3)Gal(b1-3)GlcNAc(b1-2)Man
Procedure, shortened: as §1

[28] = molecular target: Neu5Ac(a2-3)Gal(b1-3)GlcNAc(b1-2)Man(a1-3)[GlcNAc(b1-4)][Neu5Ac(a2-3)Gal(b1-3)GlcNAc(b1-2)Man(a1-6)]Man(b1-4)GlcNAc(b1-4)GlcNAc
Procedure, shortened: as §1

[29] = molecular target: Neu5Ac(a2-3)Gal(b1-3)GlcNAc(b1-2)Man(a1-3)[Neu5Ac(a2-3)Gal(b1-3)GlcNAc(b1-2)Man(a1-6)]Man(b1-4)GlcNAc(b1-4)GlcNAc
Procedure, shortened: as §1

[30] = molecular target: Neu5Ac(a2-3)Gal(b1-3)GlcNAc(b1-2)[Neu5Ac(a2-3)Gal(b1-3)GlcNAc(b1-4)]Man(a1-6)[Neu5Ac(a2-3)Gal(b1-3)GlcNAc(b1-2)Man(a1-3)]Man(b1-4)GlcNAc(b1-4)GlcNAc
Procedure, shortened: as §1

[31] = molecular target: Neu5Ac(a2-3)Gal(b1-3)GlcNAc(b1-3)Gal(b1-3)GlcNAc
Procedure, shortened: as §1

[32] = molecular target: Neu5Ac(a2-3)Gal(b1-3)GlcNAc(b1-3)Gal(b1-4)GlcNAc
Procedure, shortened: as §1

[33] = molecular target: Neu5Ac(a2-3)Gal(b1-3)GlcNAc(b1-3)GalNAc
Procedure, shortened: as §1

B1: Gal 8 (Mus musculus), Q9JL15 (protein)
chain: MGGSHHHHHHGMASMLSLNNLQNIIYNPIIPYVGTITEQLKPGSLIVIRGHVPKDSERFQVDFQLGNSLKPRADVAFHFNPRFKRSSCIVCNTLTQEKWGWEEITYDMPFRKEKSFEIVFMVLKNKFQVAVNGRHVLLYAHRISPEQIDTVGIYGKVNIHSIGFRFSSASALPHTLGDLQSMETSALGLTQINRENIQKPGKLQLSLPFEARLNASMGPGRTVVIKGEVNTNARSFNVDLVAGKTRDIALHLNPRLNVKAFVRNSFLQDAWGEEERNITCFPFSSGMYFEMIIYCDVREFKVAINGVHSLEYKHRFKDLSSIDTLSVDGDIRLLDVRSW
**Q.** With B1 as the binder, how does the “glycan array binding signal (z-score)” value [1] read?
**A.** -0.54

**Q.** What about the “glycan array binding signal (z-score)” value [2] of the same binder?
**A.** -0.54

**Q.** What about the “glycan array binding signal (z-score)” value [3] of the same binder?
**A.** -0.544

**Q.** What about the “glycan array binding signal (z-score)” value [4] of the same binder?
**A.** -0.533

**Q.** And the “glycan array binding signal (z-score)” value (GlcNAc(b1-6)GalNAc)?
**A.** -0.537

**Q.** And the “glycan array binding signal (z-score)” value [5]?
**A.** -0.106

**Q.** What about the “glycan array binding signal (z-score)” value (Kdn(a2-3)Gal(b1-3)GalNAc) of the same binder?
**A.** -0.209

**Q.** What about the “glycan array binding signal (z-score)” value (Kdn(a2-3)Gal(b1-3)GlcNAc) of the same binder?
**A.** -0.098

**Q.** And the “glycan array binding signal (z-score)” value (Kdn(a2-3)Gal(b1-4)Glc)?
**A.** -0.377

**Q.** What about the “glycan array binding signal (z-score)” value (Kdn(a2-3)Gal(b1-4)GlcNAc) of the same binder?
**A.** -0.52

**Q.** What about the “glycan array binding signal (z-score)” value [6] of the same binder?
**A.** -0.46

**Q.** What about the “glycan array binding signal (z-score)” value (Kdn(a2-6)Gal(b1-4)GlcNAc) of the same binder?
**A.** -0.534

**Q.** And the “glycan array binding signal (z-score)” value [7]?
**A.** -0.547

**Q.** What about the “glycan array binding signal (z-score)” value [8] of the same binder?
**A.** -0.539

**Q.** And the “glycan array binding signal (z-score)” value (Man(a1-2)Man(a1-3)Man)?
**A.** -0.547

**Q.** And the “glycan array binding signal (z-score)” value [9]?
**A.** -0.55

**Q.** And the “glycan array binding signal (z-score)” value [10]?
**A.** -0.543

**Q.** And the “glycan array binding signal (z-score)” value [11]?
**A.** -0.437

**Q.** And the “glycan array binding signal (z-score)” value [12]?
**A.** -0.546

**Q.** And the “glycan array binding signal (z-score)” value [13]?
**A.** -0.533

**Q.** And the “glycan array binding signal (z-score)” value [14]?
**A.** -0.538

**Q.** What about the “glycan array binding signal (z-score)” value (Man(a1-3)[Man(a1-6)]Man) of the same binder?
**A.** -0.535

**Q.** And the “glycan array binding signal (z-score)” value [15]?
**A.** -0.468

**Q.** And the “glycan array binding signal (z-score)” value [16]?
**A.** -0.51

**Q.** What about the “glycan array binding signal (z-score)” value [17] of the same binder?
**A.** -0.525

**Q.** And the “glycan array binding signal (z-score)” value [18]?
**A.** -0.537

**Q.** What about the “glycan array binding signal (z-score)” value [19] of the same binder?
**A.** -0.545

**Q.** And the “glycan array binding signal (z-score)” value (Man(a1-6)Man)?
**A.** -0.51

**Q.** And the “glycan array binding signal (z-score)” value (Man(b1-4)GlcNAc)?
**A.** -0.526

**Q.** What about the “glycan array binding signal (z-score)” value (MurNAc(b1-4)GlcNAc) of the same binder?
**A.** -0.542

**Q.** And the “glycan array binding signal (z-score)” value (Neu5Ac(a2-3)Gal)?
**A.** -0.538

**Q.** And the “glycan array binding signal (z-score)” value [20]?
**A.** -0.187

**Q.** And the “glycan array binding signal (z-score)” value [21]?
**A.** 0.251

**Q.** And the “glycan array binding signal (z-score)” value [22]?
**A.** -0.539

**Q.** And the “glycan array binding signal (z-score)” value [23]?
**A.** -0.01

**Q.** What about the “glycan array binding signal (z-score)” value [24] of the same binder?
**A.** -0.352

**Q.** And the “glycan array binding signal (z-score)” value [25]?
**A.** -0.028

**Q.** What about the “glycan array binding signal (z-score)” value [26] of the same binder?
**A.** 0.034

**Q.** What about the “glycan array binding signal (z-score)” value [27] of the same binder?
**A.** 0.1

**Q.** And the “glycan array binding signal (z-score)” value [28]?
**A.** -0.534

**Q.** And the “glycan array binding signal (z-score)” value [29]?
**A.** -0.466

**Q.** What about the “glycan array binding signal (z-score)” value [30] of the same binder?
**A.** 0.396

**Q.** And the “glycan array binding signal (z-score)” value [31]?
**A.** 0.355

**Q.** What about the “glycan array binding signal (z-score)” value [32] of the same binder?
**A.** 0.27

**Q.** What about the “glycan array binding signal (z-score)” value [33] of the same binder?
**A.** 0.083
